{"source": "patent US12551573B2", "about": "“Compositions and methods for the targeting of PCSK9” (Scribe Therapeutics Inc., priority 2022, dated 2026)", "molecules": {"B1": {"name": "DOMAIN_11331 (protein, listed as Capra hircus)", "chain": "PKVPVSFEDVAMYFTKTEWKLLDHRQRKLYKQVMLENYHHLVSLGFSFAKPQLVIQLEQGQKPWVADVHRMRITTGMQAGD"}, "B2": {"name": "DOMAIN_11289 (protein, listed as Suricata suricatta)", "chain": "THGLVMFKDVAIDVSQEEWECLNPTQRSLYRDVMLENYSNLVSLGLSLSKPAVISSLEQGMEPWMVVREVTGKQCPDLVSR"}, "B3": {"name": "DOMAIN_12631 (protein, listed as Macaca fascicularis)", "chain": "SQESVAFEDVAVYFTTKEWAIMVPAERALYRDVMLENYEAVAFVVPPTSKPALVSHLEQGKESCFIRPQGVLSRSDWRAGL"}, "B4": {"name": "DOMAIN_11282 (protein, listed as Suricata suricatta)", "chain": "KPGAVSFADVAVYFSPEEWGCLRPAQRALYRDVMRETYGHLGALGFPGPKPALISWMEQESEESEAWSPAAKDPEEGESLG"}, "B5": {"name": "DOMAIN_11225 (protein, listed as Capra hircus)", "chain": "IKSPLTFGDVAVEFSGEEWAWLDSAQRSLHRSVMLENYRNLASLGLCLSKPEMISSLEQRKEPWAVKRKSTSGKCPDLQTL"}, "B6": {"name": "DOMAIN_11291 (protein, listed as Suricata suricatta)", "chain": "SKLPVTFGDLAIYFSQEEWEWLSPIQKDLYEDVMLENYQNLVSLGLSFRRPNVITLLEKGKAPWMVEPVRKRRGLDSKSKC"}, "B7": {"name": "DOMAIN_11162 (protein, listed as Mandrillus leucophaeus)", "chain": "FQGSISFKDVTVGFSQEEWQHLNPSQRALYRDVMLENYSNLVSVGYCVHKPEVISRLEQGEEPWRLEEEFPSQSFSEVWTA"}, "B8": {"name": "DOMAIN_11110 (protein, listed as Sus scrofa)", "chain": "QAEVTFEDVAVLLSREEWGRLGPAQKGLYRDVMLETYRNLVSLGAGHAGPKPGVIAQLERGDEPWVLDMQGREQSTIDGSA"}, "B9": {"name": "DOMAIN_11178 (protein, listed as Sus scrofa)", "chain": "MAFRDVAVAFSQKEWKLLSPAQRTLYRDVMLENYSLLVSLGIAFPKPKLITQLEQGDEPWREESECFLDLYSEPRTEFQPC"}, "B10": {"name": "DOMAIN_11204 (protein)", "chain": "SVAFEDVAVNFTQEEWALLSPSQKNLYRDVMLETFRNLASVGIQWKDQNIENLYQNLGIKLRSLVERLCGPQEGSEHRETF", "modifications": "Nomascus leucogenys"}, "B11": {"name": "DOMAIN_11069 (protein, listed as Capra hircus)", "chain": "RPRAVKFGDVALYFSREEWGCLRPAQRALYRDVMQETYGHLGALGCAGPKPALISWLERNTDDWETAALDPQECPKGVAVQ"}, "B12": {"name": "DOMAIN_11158 (protein, listed as Chrysochloris asiatica)", "chain": "MLAPVTFEDVTVVFTEAEWVTLSTEQKNLYKEVTLETYRNLLSLAEPTPETYPGPSCLLPFSCQQFLSQHVLQIFPGVCAE"}, "B13": {"name": "DOMAIN_11130 (protein)", "chain": "MGLLTFRDVAIEFSLEEWQCLDTAQKNLYRNVMLENYRNLAFLGIAVSKPDLIICLEKEKEPWNMKRHEMVDEPPDICPHF", "modifications": "Nomascus leucogenys"}, "B14": {"name": "DOMAIN_11227 (protein, listed as Capra hircus)", "chain": "SQVSVTFEDVAVLFTRDEWRKLAPSQRNLYQDVMLENYSNLVSLGLPFSKPEVISLLQQGEDPWKVEKESPGGSSLGEWSS"}, "B15": {"name": "DOMAIN_11132 (protein, listed as Bos indicus)", "chain": "TLESVTFQDVAVDFTQEEWALLDTSQRTLFREVMLENISHLVSVGNQLYKSDVISHLEQGEQLSREGLGFLQGQSPVISDR"}}, "tested_on": "HBEGF locus", "format": "cell-based, human", "key": {"[1]": {"settings": "repressor domain in dXR, repression of the HBEGF gene, abundance of domain in library after vs before diphtheria toxin selection"}}, "note": "Like-named read-outs stand apart in the source and are kept apart here."}
{"molecule": "B1", "values": [{"measurement": "Log2 (fold change)", "setting": "[1]", "value": 3.0611}]}
{"molecule": "B2", "values": [{"measurement": "Log2 (fold change)", "setting": "[1]", "value": 2.69}]}
{"molecule": "B3", "values": [{"measurement": "Log2 (fold change)", "setting": "high-throughput screen of dXR repression of the HBEGF gene, change in abundance of each domain in the library before and after diphtheria toxin selection", "value": 3.6926}]}
{"molecule": "B4", "values": [{"measurement": "Log2 (fold change)", "setting": "[1]", "value": 3.536}]}
{"molecule": "B5", "values": [{"measurement": "Log2 (fold change)", "setting": "[1]", "value": 3.606}]}
{"molecule": "B6", "values": [{"measurement": "Log2 (fold change)", "setting": "[1]", "value": 4.0373}]}
{"molecule": "B7", "values": [{"measurement": "Log2 (fold change)", "setting": "[1]", "value": 3.2804}]}
{"molecule": "B8", "values": [{"measurement": "Log2 (fold change)", "setting": "[1]", "value": 3.6632}]}
{"molecule": "B9", "values": [{"measurement": "Log2 (fold change)", "setting": "[1]", "value": 2.4845}]}
{"molecule": "B10", "values": [{"measurement": "Log2 (fold change)", "setting": "[1]", "value": 3.5793}]}
{"molecule": "B11", "values": [{"measurement": "Log2 (fold change)", "setting": "[1]", "value": 3.2745}]}
{"molecule": "B12", "values": [{"measurement": "Log2 (fold change)", "setting": "[1]", "value": 2.6889}]}
{"molecule": "B13", "values": [{"measurement": "Log2 (fold change)", "setting": "[1]", "value": 2.3487}]}
{"molecule": "B14", "values": [{"measurement": "Log2 (fold change)", "setting": "[1]", "value": 2.7556}]}
{"molecule": "B15", "values": [{"measurement": "Log2 (fold change)", "setting": "[1]", "value": 3.5671}]}
